Measurements reported in article PMC7462304.
No constants are given. Whether binding was seen depends on the method and setting. In cells and extracts the contact can be indirect. Some results given as binding are weak or reduced against the parent protein; the word gives no strength. For some assays here: Sequences can lack the tags named with a protein.

Sequences of proteins named here, by UniProt entry; tags and fusion partners are left off.
UniProt Q8K1M6: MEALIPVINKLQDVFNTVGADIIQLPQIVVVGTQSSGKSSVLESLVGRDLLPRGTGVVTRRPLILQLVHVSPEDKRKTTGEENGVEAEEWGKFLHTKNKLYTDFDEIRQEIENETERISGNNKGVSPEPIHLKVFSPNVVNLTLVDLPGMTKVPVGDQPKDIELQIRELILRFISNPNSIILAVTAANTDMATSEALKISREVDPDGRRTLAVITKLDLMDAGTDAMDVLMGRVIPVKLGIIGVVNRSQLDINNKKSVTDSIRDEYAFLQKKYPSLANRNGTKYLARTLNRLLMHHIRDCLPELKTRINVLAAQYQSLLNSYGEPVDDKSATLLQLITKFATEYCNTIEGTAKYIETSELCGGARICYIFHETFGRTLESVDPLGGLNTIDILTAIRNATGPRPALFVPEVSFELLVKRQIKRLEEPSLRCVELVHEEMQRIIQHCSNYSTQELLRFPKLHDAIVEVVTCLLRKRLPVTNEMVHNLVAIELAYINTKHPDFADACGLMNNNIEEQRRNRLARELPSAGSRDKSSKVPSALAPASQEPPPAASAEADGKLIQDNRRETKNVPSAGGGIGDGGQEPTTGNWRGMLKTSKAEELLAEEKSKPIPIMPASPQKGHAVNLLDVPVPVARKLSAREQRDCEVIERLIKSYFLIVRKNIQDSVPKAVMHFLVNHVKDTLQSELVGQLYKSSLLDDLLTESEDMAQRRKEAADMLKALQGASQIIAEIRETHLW
UniProt P63242: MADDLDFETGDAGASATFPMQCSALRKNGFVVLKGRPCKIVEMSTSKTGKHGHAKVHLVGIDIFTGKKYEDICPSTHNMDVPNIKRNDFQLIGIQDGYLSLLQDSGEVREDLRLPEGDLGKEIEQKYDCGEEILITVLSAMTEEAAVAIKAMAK

Legend:
[1] = molecular target: T1, mitofusin 1 (mouse (endogenous in mouse VSMCs)) (UniProt Q811U4); experiment: proximity ligation; Duolink in situ PLA with anti-eIF5a (mouse) and anti-Mfn1 (rabbit) in paraformaldehyde-fixed mouse VSMCs treated with Ang II (100 nmol/L) for the indicated times
T1 sequence: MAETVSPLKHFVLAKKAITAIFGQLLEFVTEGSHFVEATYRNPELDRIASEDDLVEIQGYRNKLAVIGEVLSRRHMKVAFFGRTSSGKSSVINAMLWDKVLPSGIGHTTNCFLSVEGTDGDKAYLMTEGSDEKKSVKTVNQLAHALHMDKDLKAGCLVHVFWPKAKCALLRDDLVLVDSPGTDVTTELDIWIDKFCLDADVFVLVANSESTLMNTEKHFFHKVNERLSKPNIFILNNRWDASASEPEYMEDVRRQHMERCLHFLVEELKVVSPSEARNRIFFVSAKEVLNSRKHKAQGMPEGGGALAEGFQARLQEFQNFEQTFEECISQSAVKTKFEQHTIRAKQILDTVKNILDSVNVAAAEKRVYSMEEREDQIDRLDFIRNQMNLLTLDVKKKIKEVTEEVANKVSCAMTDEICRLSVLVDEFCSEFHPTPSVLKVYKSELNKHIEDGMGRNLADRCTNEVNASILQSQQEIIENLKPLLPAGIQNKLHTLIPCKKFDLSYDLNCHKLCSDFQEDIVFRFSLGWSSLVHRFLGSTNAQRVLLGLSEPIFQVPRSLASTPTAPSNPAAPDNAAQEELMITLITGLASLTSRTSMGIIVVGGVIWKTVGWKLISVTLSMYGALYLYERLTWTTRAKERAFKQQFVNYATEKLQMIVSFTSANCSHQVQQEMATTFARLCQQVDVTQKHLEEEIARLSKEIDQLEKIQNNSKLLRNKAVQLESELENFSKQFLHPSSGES

[2] = molecular target: T1, mitofusin 1 (mouse (endogenous in mouse VSMCs)); experiment: co-IP; reciprocal co-immunoprecipitation of endogenous proteins from lysates of VSMCs treated with Ang II (100 nmol/L) for the indicated times (0, 1, 5 days); antibody 1 hour at 4°C, protein A agarose overnight at 4°C, washed 5 times with cold RIPA buffer; IgG as negative control
[3] = molecular target: dynamin-related protein 1 (not stated (endogenous in VSMCs; mouse and human VSMCs were cultured)) (UniProt Q8K1M6); experiment: as above
[4] = molecular target: T2, fission mitochondrial 1 (not stated (endogenous in VSMCs; mouse and human VSMCs were cultured)) (UniProt Q9CQ92); experiment: as above
T2 sequence: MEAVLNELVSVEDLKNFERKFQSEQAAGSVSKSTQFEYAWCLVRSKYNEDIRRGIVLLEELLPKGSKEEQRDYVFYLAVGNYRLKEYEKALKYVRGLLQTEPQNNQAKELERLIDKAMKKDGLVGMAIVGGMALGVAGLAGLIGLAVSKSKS

[5] = molecular target: T3, mitochondrial fission regulator 1 (not stated (endogenous in VSMCs; mouse and human VSMCs were cultured)) (UniProt Q99MB2); experiment: as above
T3 sequence: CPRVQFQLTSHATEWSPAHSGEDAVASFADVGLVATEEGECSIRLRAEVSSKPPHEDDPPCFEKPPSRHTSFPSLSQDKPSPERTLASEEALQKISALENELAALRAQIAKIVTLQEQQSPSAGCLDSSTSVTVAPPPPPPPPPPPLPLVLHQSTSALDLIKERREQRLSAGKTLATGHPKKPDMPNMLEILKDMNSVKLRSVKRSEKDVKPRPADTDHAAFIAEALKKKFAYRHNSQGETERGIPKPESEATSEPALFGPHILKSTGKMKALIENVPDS

**Q.** Which binding [1] does the source give for “eukaryotic translation initiation factor 5a (from UniProt P63242 1-154)” here?
**A.** Its binding is “binds”.

**Q.** And the binding [2]?
**A.** Its binding is “binds”.

**Q.** What about the binding [3] of the same substance?
**A.** The binding was “no binding”.

**Q.** And the binding [4]?
**A.** The binding was “no binding”.

**Q.** And the binding [5]?
**A.** Its binding is “no binding”.
